Results published in publication PMC12820563, “FoxP3 forms a head-to-head dimer in vivo and stabilizes its multimerization on adjacent microsatellites”.
The list shows a part of the results.

Target: T1, MBP-FoxP1dN (Mus musculus, UniProt P58462 326-579)
T1 sequence: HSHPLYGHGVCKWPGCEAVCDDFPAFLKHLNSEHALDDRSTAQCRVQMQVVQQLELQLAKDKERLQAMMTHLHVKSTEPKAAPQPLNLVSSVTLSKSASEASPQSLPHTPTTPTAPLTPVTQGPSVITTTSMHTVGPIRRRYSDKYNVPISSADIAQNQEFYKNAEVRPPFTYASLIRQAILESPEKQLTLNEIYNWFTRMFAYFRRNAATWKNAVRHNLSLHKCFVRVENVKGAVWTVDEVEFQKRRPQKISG
Test: PD-seq (MBP pull-down with sequencing); 20 mM Tris-HCl pH 7.5, 100 mM NaCl, 1.5 mM MgCl2, 0.4 uM protein, 0.1 uM dsDNA library, 30 min, room temperature, amylose pull-down; high values mean tight binding
Conditions: protein: recombinant; tags: His6-MBP; chain copies: 2; dsDNA, one strand shown
In short: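 The N-terminus-lacking fragment of mouse FoxP3 or FoxP1 carried a His6-MBP tag and was expressed in E. coli. At 0.4 µM it was incubated with 0.1 µM Klenow-filled degenerate double-stranded DNA library for 30 min at room temperature in Tris pH 7.5 buffer with NaCl and MgCl2, and complexes were caught on amylose resin, washed three times, released with proteinase K, PCR-barcoded and Illumina-sequenced. Binding is reads-per-million enrichment of pull-down over input with replicates pooled.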

Sequence | binding signal
GATGATTGTTCTCCCAGCTGATGAATTCGCATGTTCGAGTAAACAAATTTTCCTAATCTTTCTGTTCAAGCGCCATCTAC | 0.913 RPM ratio (pull-down/input)
GATGATTGTTCTCCCAGCTGATGAATTGCATACGTCGAGTAAACAAATTTTCCTAATCTTTCTGTTCAAGCGCCATCTAC | 1.34 RPM ratio (pull-down/input)
GATGATTGTTCTCCCAGCTGATGAATTTCACGATTCGAGTAAACAAATTTTCCTAATCTTTCTGTTCAAGCGCCATCTAC | 0.798 RPM ratio (pull-down/input)
GATGATTGTTCTCCCAGCTGATGAATTGGAAATCTCGAGTAAACAAATTTTCCTAATCTTTCTGTTCAAGCGCCATCTAC | 0.713 RPM ratio (pull-down/input)
GATGATTGTTCTCCCAGCTGATGAATTATGCGCATCGAGTAAACAAATTTTCCTAATCTTTCTGTTCAAGCGCCATCTAC | 1.31 RPM ratio (pull-down/input)
GATGATTGTTCTCCCAGCTGATGAATTCGCAGGGTCGAGTAAACAAATTTTCCTAATCTTTCTGTTCAAGCGCCATCTAC | 0.795 RPM ratio (pull-down/input)
GATGATTGTTCTCCCAGCTGATGAATTTGCGTTTTCGAGTAAACAAATTTTCCTAATCTTTCTGTTCAAGCGCCATCTAC | 1.41 RPM ratio (pull-down/input)
GATGATTGTTCTCCCAGCTGATGAATTATAGTGGTCGAGTAAACAAATTTTCCTAATCTTTCTGTTCAAGCGCCATCTAC | 0.961 RPM ratio (pull-down/input)
GATGATTGTTCTCCCAGCTGATGAATTGACACCTTCGAGTAAACAAATTTTCCTAATCTTTCTGTTCAAGCGCCATCTAC | 1.18 RPM ratio (pull-down/input)
GATGATTGTTCTCCCAGCTGATGAATTCACAGCCTCGAGTAAACAAATTTTCCTAATCTTTCTGTTCAAGCGCCATCTAC | 0.876 RPM ratio (pull-down/input)
GATGATTGTTCTCCCAGCTGATGAATTGAGCGACTCGAGTAAACAAATTTTCCTAATCTTTCTGTTCAAGCGCCATCTAC | 0.645 RPM ratio (pull-down/input)
GATGATTGTTCTCCCAGCTGATGAATTCGCCCGTTCGAGTAAACAAATTTTCCTAATCTTTCTGTTCAAGCGCCATCTAC | 0.826 RPM ratio (pull-down/input)
GATGATTGTTCTCCCAGCTGATGAATTGAGGACCTCGAGTAAACAAATTTTCCTAATCTTTCTGTTCAAGCGCCATCTAC | 0.724 RPM ratio (pull-down/input)
GATGATTGTTCTCCCAGCTGATGAATTCCCCGTTTCGAGTAAACAAATTTTCCTAATCTTTCTGTTCAAGCGCCATCTAC | 0.866 RPM ratio (pull-down/input)
GATGATTGTTCTCCCAGCTGATGAATTAAGTGCGTCGAGTAAACAAATTTTCCTAATCTTTCTGTTCAAGCGCCATCTAC | 1.06 RPM ratio (pull-down/input)
GATGATTGTTCTCCCAGCTGATGAATTAGGGCGCTCGAGTAAACAAATTTTCCTAATCTTTCTGTTCAAGCGCCATCTAC | 0.793 RPM ratio (pull-down/input)
GATGATTGTTCTCCCAGCTGATGAATTAAATGGCTCGAGTAAACAAATTTTCCTAATCTTTCTGTTCAAGCGCCATCTAC | 0.869 RPM ratio (pull-down/input)
GATGATTGTTCTCCCAGCTGATGAATTTGGGCATTCGAGTAAACAAATTTTCCTAATCTTTCTGTTCAAGCGCCATCTAC | 1.04 RPM ratio (pull-down/input)
GATGATTGTTCTCCCAGCTGATGAATTGACAGGATCGAGTAAACAAATTTTCCTAATCTTTCTGTTCAAGCGCCATCTAC | 1.1 RPM ratio (pull-down/input)
GATGATTGTTCTCCCAGCTGATGAATTCATTACATCGAGTAAACAAATTTTCCTAATCTTTCTGTTCAAGCGCCATCTAC | 1.04 RPM ratio (pull-down/input)

Sequence | binding signal
GATGATTGTTCTCCCAGCTGATGAATTCGGTTAGTCGAGTAAACAAATTTTCCTAATCTTTCTGTTCAAGCGCCATCTAC | 0.894 RPM ratio (pull-down/input)
GATGATTGTTCTCCCAGCTGATGAATTTATGTGGTCGAGTAAACAAATTTTCCTAATCTTTCTGTTCAAGCGCCATCTAC | 1.23 RPM ratio (pull-down/input)
GATGATTGTTCTCCCAGCTGATGAATTGATTGCTTCGAGTAAACAAATTTTCCTAATCTTTCTGTTCAAGCGCCATCTAC | 1.26 RPM ratio (pull-down/input)
GATGATTGTTCTCCCAGCTGATGAATTTTATTCGTCGAGTAAACAAATTTTCCTAATCTTTCTGTTCAAGCGCCATCTAC | 0.956 RPM ratio (pull-down/input)
GATGATTGTTCTCCCAGCTGATGAATTTCAGGGTTCGAGTAAACAAATTTTCCTAATCTTTCTGTTCAAGCGCCATCTAC | 0.869 RPM ratio (pull-down/input)
GATGATTGTTCTCCCAGCTGATGAATTTAGACTTTCGAGTAAACAAATTTTCCTAATCTTTCTGTTCAAGCGCCATCTAC | 1.04 RPM ratio (pull-down/input)
GATGATTGTTCTCCCAGCTGATGAATTATCTTGCTCGAGTAAACAAATTTTCCTAATCTTTCTGTTCAAGCGCCATCTAC | 0.94 RPM ratio (pull-down/input)
GATGATTGTTCTCCCAGCTGATGAATTCACGGCGTCGAGTAAACAAATTTTCCTAATCTTTCTGTTCAAGCGCCATCTAC | 0.885 RPM ratio (pull-down/input)
GATGATTGTTCTCCCAGCTGATGAATTTCACCACTCGAGTAAACAAATTTTCCTAATCTTTCTGTTCAAGCGCCATCTAC | 0.877 RPM ratio (pull-down/input)
GATGATTGTTCTCCCAGCTGATGAATTCCCAATCTCGAGTAAACAAATTTTCCTAATCTTTCTGTTCAAGCGCCATCTAC | 0.815 RPM ratio (pull-down/input)
GATGATTGTTCTCCCAGCTGATGAATTCCCTGCATCGAGTAAACAAATTTTCCTAATCTTTCTGTTCAAGCGCCATCTAC | 1.05 RPM ratio (pull-down/input)
GATGATTGTTCTCCCAGCTGATGAATTCCGGTCTTCGAGTAAACAAATTTTCCTAATCTTTCTGTTCAAGCGCCATCTAC | 0.787 RPM ratio (pull-down/input)
GATGATTGTTCTCCCAGCTGATGAATTGCCGCAGTCGAGTAAACAAATTTTCCTAATCTTTCTGTTCAAGCGCCATCTAC | 0.916 RPM ratio (pull-down/input)
GATGATTGTTCTCCCAGCTGATGAATTGATTAATTCGAGTAAACAAATTTTCCTAATCTTTCTGTTCAAGCGCCATCTAC | 1.23 RPM ratio (pull-down/input)
GATGATTGTTCTCCCAGCTGATGAATTCACAGGGTCGAGTAAACAAATTTTCCTAATCTTTCTGTTCAAGCGCCATCTAC | 0.744 RPM ratio (pull-down/input)
GATGATTGTTCTCCCAGCTGATGAATTTGCTTCCTCGAGTAAACAAATTTTCCTAATCTTTCTGTTCAAGCGCCATCTAC | 0.968 RPM ratio (pull-down/input)
GATGATTGTTCTCCCAGCTGATGAATTGATGCCATCGAGTAAACAAATTTTCCTAATCTTTCTGTTCAAGCGCCATCTAC | 1.39 RPM ratio (pull-down/input)
GATGATTGTTCTCCCAGCTGATGAATTCGTGTTTTCGAGTAAACAAATTTTCCTAATCTTTCTGTTCAAGCGCCATCTAC | 2.29 RPM ratio (pull-down/input)
GATGATTGTTCTCCCAGCTGATGAATTCTCGTTATCGAGTAAACAAATTTTCCTAATCTTTCTGTTCAAGCGCCATCTAC | 0.953 RPM ratio (pull-down/input)
GATGATTGTTCTCCCAGCTGATGAATTAGCCACTTCGAGTAAACAAATTTTCCTAATCTTTCTGTTCAAGCGCCATCTAC | 0.908 RPM ratio (pull-down/input)
